Assay results as given in PubChem BioAssay (NCI).
“And” between values parts separate entries of the source, which are not always exact repeats. Identical values can stand only once.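 Protocol summary: plate cells (96-well), add compound at 5 concentrations, incubate 48 h, interpolate endpoints linearly. GI50: concentration for 50% inhibition of growth. TGI denotes the concentration required for complete inhibition of growth.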 Peptide text beside a SMILES is read from it.

Test system: NCI-H322M lung
Assay: DTP human tumour cell line panel, 48 h

Row | Structure (SMILES) | TGI | GI50
1 | CCOC(=O)/C(C#N)=C/c1ccc2c(-c3c(OCC)ccc4cc(/C=C(\C#N)C(=O)OCC)ccc34)c(OCC)ccc2c1 | > 100 µM | –
2 | C=C(O)c1ccccc1C#Cc1ccccc1C(=O)OC | > 10 µM | –
3 | CC1=C(C)C(=O)c2c(c(C(=O)c3ccccc3)c3nc4ccccc4n3c2C)C1=O | > 100 µM | > 100 µM
4 | CN(C)CCNC(=O)c1ccc(Nc2nc3ccccc3c3occc23)cc1 | 7.85 µM | 2.66 µM
5 | N#CC1=C(N)Oc2cc3c(cc2C1c1cccs1)OCO3 (stereo unspecified) | > 100 µM | 6.32 µM
6 | COC(=O)/C=C/c1cc(O)c2c(c1)C(C(=O)OC)C(c1ccc(O)c(O)c1)O2 (stereo unspecified) | 34.4 µM and 32.3 µM | 6.57 µM and 5.76 µM
7 | c1ccc(N=C2c3ccccc3CN2c2ccccc2)cc1 | > 100 µM | –
8 | O=S(=O)([O-])[O-].[OH3+].[OH3+].[OH3+].[Ru+2].c1ccccc1 | > 100 µM | > 100 µM
9 | COc1cc(Nc2cnc3cc(C(F)(F)F)ccc3n2)cc(OC)c1OC | > 100 µM | –
10 | O=C1OC(c2ccco2)=N/C1=C\c1ccc(Cl)c(Cl)c1 | > 100 µM | –
11 | O=C1/C(=C/c2cccc([N+](=O)[O-])c2)COc2ccc(O)c(O)c21 | 2.99 µM | 1.56 µM
12 | Cn1c(C(N)=O)cc2c1-c1nc(Nc3ccccc3)ncc1CCC2 | 48.6 µM | 4.51 µM
13 | CCC1(C)C=Cc2c(cc(OC)c3c(=O)c4ccccc4n(C)c23)O1 (stereo unspecified) | > 10 µM | –
14 | CSC1=N/C(=C\c2ccc(C)cc2)C(=O)N1CN1CCOCC1 | > 100 µM | –
15 | O=C(Nc1ccc(S(=O)(=O)Nc2nccs2)cc1)c1cccnc1Nc1cccc(Cl)c1 | 38.9 µM | 9.29 µM
16 | C/C(=N\N=C(N)N)C(CN(CC(C)C)CC(C)C)C(=O)Nc1ccc(C)cc1C (stereo unspecified) | > 100 µM | –
17 | CN(N=O)C(=O)Nc1c[nH]c(=O)[nH]c1=O | > 100 µM | –
18 | O=C(Nc1ccc(-c2nc3cc4ccccc4cc3[nH]2)cc1)c1cccc(Br)c1 | > 100 µM | 32.2 µM
19 | COc1ccc(CN2C(=O)/C(=C\c3cc(OC)c(OC)c(OC)c3)c3cc(OC)ccc32)cc1 | > 59.5 µM | 3.8 µM
20 | COc1cccc(-c2nn(-c3ccccc3)cc2-c2ccnc(NCCNS(=O)(=O)c3ccc(Cl)cc3)c2)c1 | > 100 µM | 9.39 µM
21 | CC/C(=N\NC(=O)c1cccnc1)c1ccc2c(c1)OCCO2 | > 100 µM | –
22 | CC(=O)N(C)OC(=O)CC(=O)c1ccccc1 | > 100 µM | –
23 | CCNC(=O)C[C@@H]1N=C(c2ccc(Cl)cc2)c2cc(OC)ccc2-n2c(C)nnc21 | > 100 µM | 5.47 µM

Row | Structure (SMILES) | TGI | GI50
24 | Cn1ccnc1C(=O)/C=C/c1ccc(CC(=O)Nc2ccc(Cl)cc2)cc1 | > 25 µM | 3.99 µM
25 | CCc1ccc(-c2nnc(COc3ccc(-c4nc5ccc(C)cc5[nH]4)cc3OC)o2)cc1 | > 100 µM | 3.8 µM
26 | CCN(CC)CCn1c(C(C)(C)C)nc2ccccc21 | > 100 µM | –
27 | COc1ccc(/C=C2\C=Cc3ccccc32)cc1OC | > 100 µM | –
28 | CN(C)CCCCN1CCc2c(n(C)c3ccccc23)C1=O | > 100 µM and 72.2 µM | 81.1 µM and 26.8 µM
29 | O=C(Nc1ccc(Cl)c([N+](=O)[O-])c1)Nc1nc2ccccc2s1 | 12.7 µM | 3.59 µM
30 | NC(=O)NC(=O)c1cnccn1 | > 100 µM | –
31 | O=c1c2ccccc2nc2n1NC(c1c(Cl)cccc1Cl)N2c1cccc(Cl)c1 (stereo unspecified) | 52.1 µM | –
32 | CC(C)(C)[OH+][O-].[O-]c1ccc(Cl)cc1C=Nc1ccc(Cl)cc1[O-].[O]=[V] | 18.2 µM | 0.978 µM
33 | CN1CCCN2CCN(C)CCN(CC1)CC2 | > 100 µM | –
34 | O=C(Cn1c(=O)ccn(C2OC(CO)C(O)C2F)c1=O)c1ccc(F)cc1 (stereo unspecified) | > 100 µM | –
35 | CC(=O)/C(C=Nc1c(C)n(C)n(-c2ccccc2)c1=O)=C(/C)O | > 100 µM | –
36 | Cc1[nH]c2ncn3nc(C(Cl)(Cl)Cl)nc3c2c1Cc1ccccc1 | > 100 µM | –
37 | COC(=O)c1c[nH]cc1CCc1c[nH]cc1C(=O)OC | > 100 µM | –
38 | CC1NC(=O)CNC(=O)CNC(=O)C(Cc2ccc(O)cc2)NC(=O)C(C(C)C)NC(=O)C(C)NC1=O (stereo unspecified) (cyclo(GGAAVY); configuration not given here) | > 100 µM | –
39 | C/C(=N\NC(=S)N1CCCCCC1)c1nccnc1C | 7.63 µM | –
40 | O=C1C=CC(=O)c2c1ccc1c3ccccc3n(-c3ccccn3)c21 | > 100 µM | –
41 | C=C1C(=O)O[C@@H]2C[C@@H]1CC[C@]1(C)O[C@H]1CC[C@@]1(C)O[C@@H]1CC[C@@]2(C)O | > 100 µM | > 100 µM
42 | Cc1ccc(Nc2nc(NCCO)c3ccccc3n2)cc1C | 25.4 µM | 11.8 µM
43 | COc1ccc(C(=O)Cn2c(C(=O)c3ccc(Cl)cc3)nc3ccccc32)cc1 | > 100 µM | > 60.9 µM
44 | C[Si](C)(C)C#CCO[Si](C)(C)C | > 100 µM | –
45 | CNC(=S)/C(=N\Nc1nc[nH]c1C(N)=O)C(N)=S | > 61.6 µM | –
46 | NC(N)=NCCCC(N=c1c2ccccc2n(O)c2ccccc12)C(=O)O (stereo unspecified) | > 100 µM | –
